Assay results taken from the supplement of paper PMC8512760.
The list shows a part of the results. Most values come without repeats; read them as rough.

Tests used:
Assay in all cases: cell viability relative to vehicle (% of vehicle); basal-like triple-negative breast cancer lines; higher = less cytotoxic
Settings in all cases: 10 µM; 72 h
HCC-1143 = test system: HCC-1143
HCC-1187 = test system: HCC-1187
MDA-468 = test system: MDA-468
SUM-149 = test system: SUM-149
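Also: stably firefly luciferase-GFP labeled cells in 96-well plates, viability read as luciferase photon flux after d-luciferin addition, treated wells normalized to vehicle wells, single-dose high-throughput screen.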

Row | Compound | cell viability (HCC-1143) | cell viability (HCC-1187) | cell viability (MDA-468) | cell viability (SUM-149)
1 | CCOC(=O)[C@H](CCc1ccccc1)N[C@@H](C)C(=O)N1[C@H](C(=O)O)C[C@H]2CCCC[C@@H]21 [Trandolapril] | 137 | 94.4 | 84.8 | 115
2 | CN=C(NC#N)NCCSCc1nc[nH]c1C [Cimetidine] | 87.5 | 98.2 | 102 | 115
3 | COc1ccc2cc([C@H](C)C(=O)[O-])ccc2c1.[Na+] [Naproxen Sodium] | 69.8 | 84 | 111 | 101
4 | CC(=O)N1CCN(c2ccc(OCC3COC(Cn4ccnc4)(c4ccc(Cl)cc4Cl)O3)cc2)CC1 (stereo not drawn) [Ketoconazole] | 101 | 61 | 86.2 | 130
5 | COc1ccc(CC2c3cc(OC)c(OC)cc3CC[N+]2(C)CCC(=O)OCCCCCOC(=O)CC[N+]2(C)CCc3cc(OC)c(OC)cc3C2Cc2ccc(OC)c(OC)c2)cc1OC.O=S(=O)([O-])c1ccccc1.O=S(=O)([O-])c1ccccc1 (stereo not drawn) [Cisatracurium Besylate] | 80.9 | 86.6 | 99.5 | 99.9
6 | CN1CCN(c2ccc3c(c2)NC(=C2C(=O)N=c4cccc(F)c4=C2N)N3)CC1 [Dovitinib (TKI-258, CHIR-258)] | 35.7 | 48.5 | 40.5 | 51
7 | CNCC(O)c1cccc(O)c1.Cl (stereo not drawn) [Phenylephrine HCl] | 81.5 | 101 | 140 | 104
8 | COc1cc2c(Oc3ccc4[nH]c(C)cc4c3F)ncnc2cc1OCCCN1CCCC1 [Cediranib (AZD217)] | 88 | 79.9 | 75.1 | 83.1
9 | O=C([C@H](CCC/N=C(N)/N)NS(=O)(C1=C2NC[C@H](C)CC2=CC=C1)=O)N3[C@@H](C(O)=O)C[C@H](C)CC3 [Argatroban] | 85.1 | 98.5 | 89.5 | 94.7
10 | Cc1ccc(C2OC(CO)C(O)C(O)C2O)cc1Cc1ccc(-c2ccc(F)cc2)s1 (stereo not drawn) [Canagliflozin] | 79.5 | 95.1 | 84 | 91.5
11 | CCCNS(=O)(=O)Nc1ncnc(OCCOc2ncc(Br)cn2)c1-c1ccc(Br)cc1 [Macitentan] | 85.6 | 91.5 | 69.7 | 101
12 | CC(=O)C1(O)Cc2c(O)c3c(c(O)c2C(OC2CC(N)C(O)C(C)O2)C1)C(=O)c1ccccc1C3=O.Cl (stereo not drawn) [Idarubicin HCl] | 27.1 | 21.9 | 26.4 | 31.4
13 | CC(C=CC1=C(C)CCCC1(C)C)=CC=CC(C)=CC(=O)O [Isotretinoin] | 90.4 | 77.4 | 91.6 | 143
14 | CC(C)c1nc(CN(C)C(=O)NC(C(=O)NC(Cc2ccccc2)CC(O)C(Cc2ccccc2)NC(=O)OCc2cncs2)C(C)C)cs1 (stereo not drawn) [Ritonavir] | 84.8 | 100 | 82.4 | 106
15 | CN1CCCC[C@H]1CCN1c2ccccc2Sc2ccc(S(C)=O)cc21.O=S(=O)(O)c1ccccc1 (stereo partly drawn) [Mesoridazine Besylate] | 79.3 | 86.3 | 116 | 145
16 | CC12CCC3c4ccc(O)cc4CCC3C1CCC2OC(=O)CCC1CCCC1 (stereo not drawn) [Estradiol Cypionate] | 79.2 | 106 | 95.2 | 91.8
17 | CS(=O)(=O)c1ccc(C2=C(c3ccccc3)C(=O)OC2)cc1 [Rofecoxib] | 109 | 94.9 | 115 | 115
18 | CN(C)CCOC(C)(c1ccccc1)c1ccccn1.O=C(O)CCC(=O)O (stereo not drawn) [Doxylamine Succinate] | 78.3 | 103 | 111 | 106
19 | Cc1ccccc1C(OCCN(C)C)c1ccccc1.O=C(O)CC(O)(CC(=O)O)C(=O)O (stereo not drawn) [Orphenadrine Citrate] | 85 | 89.7 | 102 | 108
20 | CSc1nc2cc(Oc3cccc(Cl)c3Cl)c(Cl)cc2[nH]1 [Triclabendazole] | 75.5 | 88.8 | 106 | 116
21 | Cc1ccc(C)c(OCCCC(C)(C)C(=O)O)c1 [Gemfibrozil] | 110 | 143 | 151 | 142
22 | CC(C)(C(=O)O)c1ccc(C(O)CCCN2CCC(C(O)(c3ccccc3)c3ccccc3)CC2)cc1.Cl (stereo not drawn) [Fexofenadine HCl] | 80.9 | 92.6 | 92.9 | 124
23 | C[N+](C)(C)CC(O)CC(=O)O.[Cl-] (racemic) [DL-Carnitine HCl] | 87.6 | 86.6 | 106 | 139
24 | Cc1nccn1CC1CCc2c(c3ccccc3n2C)C1=O.Cl (stereo not drawn) [Ondansetron HCl] | 81.6 | 68.4 | 83.3 | 123

Row | Compound | cell viability (HCC-1143) | cell viability (HCC-1187) | cell viability (MDA-468) | cell viability (SUM-149)
25 | CCCc1nc(C(C)(C)O)c(C(=O)OCc2oc(=O)oc2C)n1Cc1ccc(-c2ccccc2-c2nn[nH]n2)cc1 [Olmesartan medoxomil] | 113 | 75.4 | 105 | 142
26 | CNCCC(Oc1ccc(C(F)(F)F)cc1)c1ccccc1.Cl (stereo not drawn) [Fluoxetine HCl] | 83.6 | 74.2 | 71.5 | 70
27 | CC(C)Cn1cnc2c(N)nc3ccccc3c21 [Imiquimod] | 78.8 | 104 | 115 | 97.6
28 | CC(=O)OC1CCC2(C)C(=CCC3C2CCC2(C)C(c4cccnc4)=CCC32)C1 (stereo not drawn) [Abiraterone acetate] | 79.7 | 108 | 88.7 | 97.3
29 | C.CCN1CC(CCN2CCOCC2)C(c2ccccc2)(c2ccccc2)C1=O.O (stereo not drawn) [Doxapram HCl] | 81.2 | 78.4 | 94.5 | 108
30 | Cl.NC(CO)C(=O)NNCc1ccc(O)c(O)c1O (stereo not drawn) [Benserazide HCl] | 75.2 | 66.1 | 121 | 101
31 | CC(Cc1ccc(O)c(O)c1)(NN)C(=O)O (stereo not drawn) [Carbidopa] | 130 | 101 | 88.5 | 106
32 | CC(C)(C)NCC(O)COc1nsnc1N1CCOCC1.O=C(O)C=CC(=O)O (stereo not drawn) [Timolol Maleate] | 81.6 | 98.7 | 109 | 90.4
33 | CC1=C(C(=O)OC(C)C)C(c2cccc([N+](=O)[O-])c2)C(C(=O)OC2CN(C(c3ccccc3)c3ccccc3)C2)=C(N)N1 (stereo not drawn) [Azelnidipine] | 110 | 24.2 | 76.7 | 128
34 | CCC1OC(=O)C(C)C(OC2CC(C)(OC)C(O)C(C)O2)C(C)C(OC2OC(C)CC(N(C)C)C2O)C(C)(O)CC(C)C(=NOCOCCOC)C(C)C(O)C1(C)O (stereo not drawn) [Roxithromycin] | 128 | 101 | 97.4 | 117
35 | CN(C)CCCN1c2ccccc2CCc2ccc(Cl)cc21.Cl [Clomipramine HCl] | 68.7 | 100 | 97.5 | 81.5
36 | COC(=O)C12CCC(C)(C)CC1C1C(=O)C=C3C4(C)C=C(C#N)C(=O)C(C)(C)C4CCC3(C)C1(C)CC2 (stereo not drawn) [Bardoxolone methyl] | 23.9 | 19.9 | 23 | 35
37 | CCCCCCCCc1ccc(CCC(N)(CO)CO)cc1.Cl [Fingolimod (FTY720)] | 74.5 | 59.9 | 113 | 86.4
38 | CC(C)CC(N)=O [Isovaleramide] | 71.6 | 89.2 | 104 | 92.3
39 | COc1cc(NS(=O)(=O)c2ccc(N)cc2)nc(OC)n1 [Sulfadimethoxine] | 88.2 | 102 | 129 | 121
40 | O=C([O-])Cc1ccccc1Nc1c(Cl)cccc1Cl.[K+] [Diclofenac Potassium] | 118 | 94.3 | 95.8 | 120
41 | Cl.O.O=C1Cc2cc(CCN3CCN(c4nsc5ccccc45)CC3)c(Cl)cc2N1 [Ziprasidone hydrochloride monohydrate] | 104 | 101 | 91.4 | 116
42 | CCOC(=O)C1=CC(OC(CC)CC)C(NC(C)=O)C(N)C1 (stereo not drawn) [Oseltamivir] | 89.9 | 94 | 87.2 | 131
43 | CCC(CO)NCCNC(CC)CO.Cl.Cl (stereo not drawn) [Ethambutol HCl] | 83.7 | 75.5 | 105 | 103
44 | O=S(=O)(O)NC1CCCCC1 [Cyclamic acid] | 68.3 | 71.9 | 94.8 | 120
45 | CN(C)C(CCOc1cccc2ccccc12)c1ccccc1.Cl (stereo not drawn) [Dapoxetine HCl] | 74 | 97.7 | 116 | 80.8
46 | CCN1CCN(C(=O)NC(C(=O)NC2C(=O)N3C2SC(C)(C)C3C(=O)[O-])c2ccccc2)C(=O)C1=O.[Na+] (stereo not drawn) [Piperacillin Sodium] | 99.8 | 99.4 | 108 | 94.2
47 | Cc1ccc2c(Cl)cc(Cl)c(O)c2n1 [Chlorquinaldol] | 68.9 | 89.3 | 95.6 | 84.5
